Results as given in patent US10907158B2, “Antisense antibacterial compounds and methods” (priority 2015, dated 2021).

Tested on: Klebsiella pneumoniae F45153
Conditions: Pip/Tazo alone, 18 h, MHII

Piperacillin/Tazobactam [Pip/Tazo]
MIC: 2 µg/mL
